Data as given in PubChem BioAssay AID686978 (National Center for Advancing Translational Sciences (NCATS), 2013).
Hit rate of the full screen: of about 420,000 compounds, about 64,000 (15%) were called active. Inconclusive means that the source gave no clear call. Such entries were picked first, then a sample of the others. Calls come from the whole dose curve; as a rule, active = well fitted inhibition curve with a large enough effect; inconclusive = small, poorly fitted or top-dose-only effect; inactive = flat fitted curve, though single readings scatter. No potency is given beside an inconclusive call; the fits are too rough.
% is set by controls: 0 for no effect and ±100 for the full control effect; potency is the fitted concentration of half-maximal effect; tags give direction and shape of the fitted curve.

Experiment: qHTS for Inhibitors of human tyrosyl-DNA phosphodiesterase 1 (TDP1): qHTS in cells in absence of CPT; note: nearly all actives have a fitted effect of over 55% in size
Details: DT40 Tdp1-/- hTDP1 cells, no CPT, ATP luminescence, 48 h; activity change, negative = growth inhibition: at 46.2 µM (top of the series) unless noted
Outline: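 Luminescent ATP content (CellTiter-Glo) served as the growth readout. Knockout chicken DT40 cells expressing human TDP1 were exposed to compounds without camptothecin for a minimum 48 hr at 37 °C.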
In the case of `O=C(Nc1cccc2c1CCCC2)c1cc(C2CCCCN2S(=O)(=O)c2cccs2)on1` (configuration not stated), the Potency is reported as active: 23.1 µM. In the case of `Cc1ccc(-n2nc3c4c(cccc4c2=O)-c2ccccc2-3)cc1`, the Potency is reported as inconclusive [inhibitor, partial curve]. With `CCS(=O)(=O)c1ccc(O)c(NC(=O)c2cc(-c3ccccn3)nc3ccccc23)c1` the Potency was inconclusive [inhibitor, single point]. In the case of `CN1CCN(c2ccc([N+](=O)[O-])cc2NC(=O)c2ccco2)CC1`, the “activity change, negative = growth inhibition” value is reported as inactive: -19%. For `COc1ccc(N=Nc2cc(-c3ccccc3)ccc2O)cc1`, the “activity change, negative = growth inhibition” value was inactive: -15.2%. In the case of `CCc1cc2c(cc3c(=O)n(CC(=O)NC(C)c4ccccc4)ncn32)s1` (configuration not stated), the Potency is reported as inconclusive [inhibitor, single point]. For `C=CCn1cc(C(=O)NCC2CCCO2)c(=O)c2cc(S(=O)(=O)N3CCCCCC3)ccc21` (configuration not stated), the Potency was inconclusive [inhibitor, single point]. With `O=S(=O)(c1ccc(Cl)cc1)c1nc(-c2cccs2)oc1N1CCCCC1` the Potency was active: 16.4 µM. In the case of `C#CCN(C[C@@H]1[C@@H](OC(=O)NCCCCCC)[C@@H](OC(=O)NCCCCCC)Cn2c(=O)ccc(=O)n21)S(=O)(=O)c1ccc(C)cc1`, the Potency is reported as active: 3.26 µM. In the case of `COc1ccccc1CNC(=O)Cc1csc2nc(-c3ccc(F)cc3)cn12`, the Potency is reported as inconclusive [inhibitor, single point]. For `O=C(O)c1ccc(N/N=C/c2ccc3c(c2)OCO3)cc1`, the Potency was inconclusive [inhibitor, partial curve]. In the case of `C[C@H]1CN(CCc2ccccc2)C(=O)[C@@H]1CC(=O)NCc1ccccc1`, the activity change, negative = growth inhibition is reported as inconclusive: -31.8% [inhibitor]. With `Cc1c(/C(O)=C2\C(=O)C(=O)N(CCN(C)C)C2c2ccccc2)cnn1-c1ccccc1` (configuration not stated) the Potency was inconclusive [inhibitor, single point]. In the case of `O=C(COc1ccc(F)cc1)N(Cc1cccc(Br)c1)C1CCS(=O)(=O)C1` (configuration not stated), the Potency is reported as inconclusive [inhibitor, single point]. In the case of `CCN(CC(=O)NCc1ccc(F)cc1)CC(=O)Nc1ccc(Br)cc1F`, the Potency is reported as inconclusive [inhibitor, single point]. With `COc1cccc(C(C)(O)c2nc(-c3ccc(F)cc3OC)cs2)c1` (configuration not stated) the Potency was inconclusive [inhibitor, single point]. For `O=C(Nc1cc(Br)c(O)c(Br)c1)c1cccc(NC(=O)c2ccco2)c1`, the “activity change, negative = growth inhibition” value was inactive: -25.6%. With `COc1cccc(-c2cc(NCc3ccccc3OC)ncn2)c1` the Potency was inconclusive [inhibitor, partial curve]. For `CCOC(=O)c1cnn(-c2nc(-c3ccc(F)cc3)cs2)c1C(F)(F)F`, the “activity change, negative = growth inhibition” value was inactive: -17.8%. For `COc1ccc(CCNCc2cc(C)n(-c3ccc(OC)cc3)c2C)cc1`, the Potency was inconclusive [inhibitor, single point]. For `CCCOc1ccc(C(=O)Nc2ccc(N3CCOCC3)cc2N2CCOCC2)cc1OCC`, the Potency was active: 20.6 µM. In the case of `c1ccc(N2CCN(c3ncnc4scc(-c5cccs5)c34)CC2)cc1`, the Potency is reported as inconclusive [inhibitor, single point]. With `Cc1ccccc1N1CC(C(=O)N2CC(C)OC(C)C2)CC1=O` (configuration not stated) the “activity change, negative = growth inhibition” value was inactive: -5.11%. In the case of `C/C(=N\NC(=S)NCCc1ccccc1)c1ccc(O)cc1O`, the Potency is reported as inconclusive [inhibitor, single point]. With `Cc1ccc(CN2CCN(Cc3cn(C)nc3-c3ccccc3)CC2CCO)o1` (configuration not stated) the “activity change, negative = growth inhibition” value was inactive: -4.56%. In the case of `CCOC(=O)c1sc2ccccc2c1S(=O)(=O)NCc1ccccc1OC`, the Potency is reported as inconclusive [inhibitor, single point]. In the case of `O=C(CCc1nc(-c2ccccc2)no1)NC1CCCCCC1`, the “activity change, negative = growth inhibition” value is reported as inactive: -17.2%. With `CS(=O)(=O)N1CCC(C(=O)Nc2ccc(Br)cc2F)CC1` the “activity change, negative = growth inhibition” value was inactive: 3.45%. For `CCCn1c(C2CC(=O)N(c3cc(OC)ccc3OC)C2)nc2ccccc21` (configuration not stated), the Potency was inconclusive [inhibitor, single point]. With `Cc1ccccc1-n1c(SCc2c(C)noc2C)nnc1-c1c[nH]c2ccccc12` the Potency was inconclusive [inhibitor, single point]. With `O=C(c1ccc(OC2CCN(Cc3ccccc3OC(F)F)CC2)cc1)N1CCCC1` the “activity change, negative = growth inhibition” value was inactive: 22.5%. With `NC(=O)c1cccnc1Oc1cccc(Cl)c1` the Potency was inconclusive [inhibitor, single point]. In the case of `CCOC(=O)c1cccc(NS(=O)(=O)c2c(C)[nH]c(=O)[nH]c2=O)c1`, the “activity change, negative = growth inhibition” value is reported as inactive: 8.65%. For `CCc1cc(=O)oc2cc(C)c(CN3CCCC(C)C3)c(O)c12` (configuration not stated), the Potency was inconclusive [inhibitor, partial curve]. With `O=C(Nc1ccc(F)cc1Cl)C1=COCCO1` the “activity change, negative = growth inhibition” value was inactive: 4.17%. In the case of `CSc1ccc(Cn2nnc(C(=O)Nc3ccc(C)c(C)c3)c2N)cc1`, the Potency is reported as inconclusive [inhibitor, partial curve, poor fit]. With `CC(=O)c1cccc(S(=O)(=O)Nc2cccc(S(=O)(=O)NC3=NCCC3)c2)c1` the “activity change, negative = growth inhibition” value was inactive: -1.5%. For `On1nnc2cc(C(F)(F)F)ccc21`, the “activity change, negative = growth inhibition” value was inactive: -23%. For `O=C(NCC1COc2ccccc2O1)C1(c2ccccc2)CCCC1` (configuration not stated), the Potency was inconclusive [inhibitor, single point]. For `CCn1cc(C(=O)NCc2ccc3c(c2)OCO3)c(=O)c2cc(F)c(N3CCN(C)CC3)cc21`, the Potency was inconclusive [inhibitor, partial curve]. For `O=[N+]([O-])c1ccc2c(c1)/C(=N\O)c1ccccc1-2`, the Potency was inconclusive [inhibitor, partial curve]. For `COc1cc(C=O)cc(OC)c1OS(=O)(=O)c1ccc(NC(C)=O)cc1`, the Potency was inconclusive [inhibitor, single point]. In the case of `COc1ccc(C(=O)NC(=S)Nc2ccccc2N2CCOCC2)cc1Br`, the Potency is reported as active: 18.4 µM. For `COc1ccc(C=O)cc1CN1CCCN(Cc2ccccc2F)S1(=O)=O`, the Potency was inconclusive [inhibitor, single point]. With `CCOC(=O)/C(C#N)=C1/SC(CC)C(=O)N1c1ccc(Br)cc1` (configuration not stated) the “activity change, negative = growth inhibition” value was inactive: -18.7%. With `Cc1nn(Cc2ccc(Cl)cc2Cl)c(C)c1NC(=O)CCl` the Potency was active: 13 µM. In the case of `CC1CCN(CC2CCN(C(=O)NCc3ccccc3)CC2)CC1`, the “activity change, negative = growth inhibition” value is reported as inactive: 10.1%. For `CC1CCCC(C)N1C(=O)COC(=O)c1cccnc1Cl` (configuration not stated), the “activity change, negative = growth inhibition” value was inactive: 3.23%. With `CCC1CN(C(=O)Nc2ccccc2F)c2cc(C)ccc2O1` (configuration not stated) the Potency was inconclusive [inhibitor, single point]. For `Cc1c([N+](=O)[O-])c(C(=O)Sc2ccc(Br)cc2)nn1C`, the Potency was inconclusive [inhibitor, single point]. For `COC(=O)c1c(C)nn(-c2ccc(OC(F)(F)F)cc2)c1-c1snnc1C`, the Potency was active: 16.4 µM. In the case of `c1cc2cc(CNc3nc(NCC4CC4)nc4ccsc34)ccc2o1`, the Potency is reported as inconclusive [inhibitor, full curve, poor fit]. With `O=C(NCc1ccc2c(c1)OCO2)C(=O)Nc1ccccc1` the “activity change, negative = growth inhibition” value was inactive: 8.21%. In the case of `CC1Cc2ccccc2N1CC(=O)NC(=O)NCc1ccccc1` (configuration not stated), the “activity change, negative = growth inhibition” value is reported as inactive: 1.06%. For `CC[C@@]1(C(=O)OC)N[C@H](CN(C)C(=O)Nc2ccc(F)cc2)[C@@H]2C(=O)N(C)C(=O)[C@@H]21`, the “activity change, negative = growth inhibition” value was inactive: -3.34%. In the case of `CCOc1ccc(NC(=O)CN(C)C(=O)c2cccnc2Sc2ccc(Cl)cc2)cc1OCC`, the Potency is reported as inconclusive [inhibitor, single point]. In the case of `COc1cc(C)ccc1OCCSc1nc2ccc(NC(=O)c3ccco3)cc2s1`, the Potency is reported as active: 10.3 µM. In the case of `CC(=O)c1cccc(NC(=O)c2cc(Cl)sc2Cl)c1`, the Potency is reported as inconclusive [inhibitor, single point]. For `Cc1csc(NC(=O)c2ccc(Br)s2)n1`, the Potency was inconclusive [inhibitor, partial curve]. With `Cc1ccc(S(=O)(=O)NCC(=O)Nc2ccc3c(c2)OCCO3)cc1` the “activity change, negative = growth inhibition” value was inactive: -13.1%. With `Cc1occc1-c1nnc(SCC(=O)c2ccc(F)cc2)o1` the Potency was inconclusive [inhibitor, single point]. For `COc1cccc(-c2csc(Nc3ccc(Oc4ccccc4)cc3)n2)c1`, the Potency was inconclusive [inhibitor, single point]. For `Cc1ccc(C)c(S(=O)(=O)N2CCN(CC(=O)NC(=O)NCc3ccccc3)CC2)c1`, the Potency was inconclusive [inhibitor, single point]. With `COC(=O)c1ccc2c(=O)n(CC3CCCO3)c(SCC(=O)Nc3ccc(OC)cc3OC)nc2c1` (configuration not stated) the “activity change, negative = growth inhibition” value was inactive: -24.3%. In the case of `CC(=O)c1c(C)[nH]c(C(=O)CN2C(=O)NC(C)(C)C2=O)c1C`, the “activity change, negative = growth inhibition” value is reported as inactive: -15.2%. With `Cc1cc(C(=O)Nc2ccccc2N2CCCCC2)no1` the Potency was inconclusive [inhibitor, partial curve, poor fit]. For `O=C(c1ccco1)N1CCN(C(=O)c2ccc(-c3ccc([N+](=O)[O-])cc3)o2)CC1`, the Potency was inconclusive [inhibitor, single point]. In the case of `Cc1cc(Br)ccc1NC(=O)CNC(=O)CNc1cccc([N+](=O)[O-])c1`, the Potency is reported as inconclusive [inhibitor, single point]. With `CC1CCN(C(=O)c2cc(-c3ccccc3O)on2)CC1` the “activity change, negative = growth inhibition” value was inactive: -20.5%. In the case of `Cc1cc(Cl)ccc1C(=O)C1CCCN(C(=O)c2cncs2)C1` (configuration not stated), the Potency is reported as inconclusive [inhibitor, single point]. With `CCOc1ccc(-c2nc(N)nc(C)c2-c2ccc(OC)c(OC)c2)c(O)c1` the Potency was inconclusive [inhibitor, single point]. For `CCn1cc(C(=O)N(C)Cc2ccccc2)c(=O)c2cc(S(=O)(=O)N3CCc4ccccc4C3)ccc21`, the Potency was inconclusive [inhibitor, partial curve].
